# Some of the results follow.
# Columns and labels:
# Assay in all cases: glycan array binding signal (z-score within array); higher = stronger binding
# Conditions in all cases: glycan notation: IUPAC condensed, linker removed
# [1] = molecular target: Gal(b1-3)GlcNAc(b1-3)Gal(b1-4)GlcNAc(b1-2)[Gal(b1-3)GlcNAc(b1-3)Gal(b1-4)GlcNAc(b1-6)]Man(a1-6)[Gal(b1-3)GlcNAc(b1-3)Gal(b1-4)GlcNAc(b1-2)Man(a1-3)]Man(b1-4)GlcNAc(b1-4)[Fuc(a1-6)]GlcNAc
# In short: (§1)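 From the Consortium for Functional Glycomics database, 3228 arrays were curated, keeping only those whose protein sequence was available. Binding is given as a within-array Z-score averaged across arrays sharing a protein sequence and across linkers. Negative Z-scores can be read as non-binding.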
# [2] = molecular target: Gal(b1-3)GlcNAc(b1-3)Gal(b1-4)GlcNAc(b1-3)Gal(b1-4)GlcNAc(b1-2)[Gal(b1-3)GlcNAc(b1-3)Gal(b1-4)GlcNAc(b1-3)Gal(b1-4)GlcNAc(b1-6)]Man(a1-6)[Gal(b1-3)GlcNAc(b1-3)Gal(b1-4)GlcNAc(b1-3)Gal(b1-4)GlcNAc(b1-2)Man(a1-3)]Man(b1-4)GlcNAc(b1-4)[Fuc(a1-6)]GlcNAc
# In short: as §1
# [3] = molecular target: Gal(b1-3)GlcNAc(b1-3)Gal(b1-4)GlcNAc(b1-6)[Gal(b1-3)GlcNAc(b1-3)]Gal(b1-4)Glc
# In short: as §1
# [4] = molecular target: Gal(b1-3)GlcNAc(b1-3)Gal(b1-4)[Fuc(a1-3)]GlcNAc
# In short: as §1
# [5] = molecular target: Gal(b1-3)GlcNAc(b1-3)Gal(b1-4)[Fuc(a1-3)]GlcNAc(b1-6)[Gal(b1-3)GlcNAc(b1-3)]Gal(b1-4)Glc
# In short: as §1
# [6] = molecular target: Gal(b1-3)GlcNAc(b1-3)GalNAc
# In short: as §1
# [7] = molecular target: Gal(b1-3)GlcNAc(b1-6)Gal(b1-4)GlcNAc
# In short: as §1
# [8] = molecular target: Gal(b1-3)GlcNAc(b1-6)GalNAc
# In short: as §1
# [9] = molecular target: Gal(b1-3)GlcNAc(b1-6)[Gal(b1-3)]GalNAc
# In short: as §1
# Gal(b1-3)GlcNAc6S = molecular target: Gal(b1-3)GlcNAc6S
# In short: as §1
# [10] = molecular target: Gal(b1-3)[Fuc(a1-4)]GlcNAc
# In short: as §1
# [11] = molecular target: Gal(b1-3)[Fuc(a1-4)]GlcNAc(b1-2)Man
# In short: as §1
# [12] = molecular target: Gal(b1-3)[Fuc(a1-4)]GlcNAc(b1-2)Man(a1-3)[Gal(b1-3)[Fuc(a1-4)]GlcNAc(b1-2)Man(a1-6)]Man(b1-4)GlcNAc(b1-4)[Fuc(a1-6)]GlcNAc
# In short: as §1
# [13] = molecular target: Gal(b1-3)[Fuc(a1-4)]GlcNAc(b1-3)Gal(b1-3)[Fuc(a1-4)]GlcNAc
# In short: as §1
# [14] = molecular target: Gal(b1-3)[Fuc(a1-4)]GlcNAc(b1-3)Gal(b1-4)[Fuc(a1-3)]GlcNAc
# In short: as §1
# [15] = molecular target: Gal(b1-3)[Fuc(a1-4)]GlcNAc(b1-6)GalNAc
# In short: as §1
# [16] = molecular target: Gal(b1-3)[GlcNAc(b1-6)]GalNAc
# In short: as §1
# [17] = molecular target: Gal(b1-3)[Neu5Ac(a2-6)]GalNAc
# In short: as §1
# [18] = molecular target: Gal(b1-3)[Neu5Ac(a2-6)]GlcNAc(b1-4)Gal(b1-4)Glc
# In short: as §1
# [19] = molecular target: Gal(b1-3)[Neu5Ac(b2-6)]GalNAc
# In short: as §1
# Gal(b1-4)Gal = molecular target: Gal(b1-4)Gal
# In short: as §1
# [20] = molecular target: Gal(b1-4)GalNAc(a1-3)[Fuc(a1-2)]Gal(b1-4)GlcNAc
# In short: as §1
# [21] = molecular target: Gal(b1-4)GalNAc(b1-3)[Fuc(a1-2)]Gal(b1-4)GlcNAc
# In short: as §1
# Gal(b1-4)Glc = molecular target: Gal(b1-4)Glc
# In short: as §1
# Gal(b1-4)Glc6S = molecular target: Gal(b1-4)Glc6S
# In short: as §1
# Gal(b1-4)GlcNAc = molecular target: Gal(b1-4)GlcNAc
# In short: as §1
# [22] = molecular target: Gal(b1-4)GlcNAc(a1-6)Gal(b1-4)GlcNAc
# In short: as §1
# Gal(b1-4)GlcNAc(b1-2)Man = molecular target: Gal(b1-4)GlcNAc(b1-2)Man
# In short: as §1
# [23] = molecular target: Gal(b1-4)GlcNAc(b1-2)Man(a1-3)Man(b1-4)GlcNAc(b1-4)GlcNAc
# In short: as §1
# [24] = molecular target: Gal(b1-4)GlcNAc(b1-2)Man(a1-3)[Gal(b1-4)GlcNAc(b1-2)Man(a1-6)]Man(b1-4)GlcNAc(b1-4)GlcNAc
# In short: as §1
# [25] = molecular target: Gal(b1-4)GlcNAc(b1-2)Man(a1-3)[Gal(b1-4)GlcNAc(b1-2)Man(a1-6)]Man(b1-4)GlcNAc(b1-4)[Fuc(a1-6)]GlcNAc
# In short: as §1
# [26] = molecular target: Gal(b1-4)GlcNAc(b1-2)Man(a1-3)[Gal(b1-4)GlcNAc(b1-2)Man(a1-6)][Gal(b1-4)GlcNAc(b1-4)]Man(b1-4)GlcNAc(b1-4)[Fuc(a1-6)]GlcNAc
# In short: as §1
# [27] = molecular target: Gal(b1-4)GlcNAc(b1-2)Man(a1-3)[Gal(b1-4)GlcNAc(b1-2)Man(a1-6)][GlcNAc(b1-4)]Man(b1-4)GlcNAc(b1-4)[Fuc(a1-6)]GlcNAc
# In short: as §1
# [28] = molecular target: Gal(b1-4)GlcNAc(b1-2)Man(a1-3)[GlcNAc(b1-2)Man(a1-6)]Man(b1-4)GlcNAc(b1-4)GlcNAc
# In short: as §1
# [29] = molecular target: Gal(b1-4)GlcNAc(b1-2)Man(a1-3)[GlcNAc(b1-4)][Gal(b1-4)GlcNAc(b1-2)Man(a1-6)]Man(b1-4)GlcNAc(b1-4)GlcNAc
# In short: as §1
# [30] = molecular target: Gal(b1-4)GlcNAc(b1-2)Man(a1-3)[Man(a1-6)]Man(b1-4)GlcNAc(b1-4)GlcNAc
# In short: as §1
# [31] = molecular target: Gal(b1-4)GlcNAc(b1-2)Man(a1-6)Man(b1-4)GlcNAc(b1-4)GlcNAc
# In short: as §1
# [32] = molecular target: Gal(b1-4)GlcNAc(b1-2)Man(a1-6)[GlcNAc(b1-2)Man(a1-3)]Man(b1-4)GlcNAc(b1-4)GlcNAc
# In short: as §1
binder,measurement,setting,value
PX14343H-pdi-506-26-506 (Parabacteroides distasonis) (protein) QPTGTMTTDSKLTSKESALALTNSAYLKNTVFNKMTPGWGCNTILLLEYMTGKATSENSQSNYKDFQDLLVSDRSLYIEDWWQDCYAGIANCNLALQKLGEFENLDASLVNGYMAEVKFMRALYYFYLVRIFGDVPKITTVQSELGELQVSRAPVKEIYDEIIIPDLLEAEQSDLAFSDHTGRVSMGAVKALLADVYLTYAGYPLQGGKSYYAESAKRSLEVIKSNEYTLFTDYESLRLPSQNNKGEFIYQVQFSLNKRHNESVRIFLPSRSGISAYDLEYGSLIPTKEFVESFEKGDKRTEEKQYFFTNYKGHPSKFSPGAAELEFMDLNGYYIYKFFDQVAVDNTAKSDLNWSVYRYTDVLLMYAEAQVNADGTPNQQSIDIVNQIRGRAGLAPFKQTNASAFLEEVWDQRYFDLCYENKMWFDMLRTRKIRDDKSGEYVDFIGYKTNWGKVYTETQLLFPIPLSERQANPNLTQNQGY,glycan array binding signal (z-score),[1],2.67
same,glycan array binding signal (z-score),[2],3.2
same,glycan array binding signal (z-score),[3],-0.156
same,glycan array binding signal (z-score),[4],-0.401
same,glycan array binding signal (z-score),[5],-0.383
same,glycan array binding signal (z-score),[6],0.667
same,glycan array binding signal (z-score),[7],1.69
same,glycan array binding signal (z-score),[8],0.717
same,glycan array binding signal (z-score),[9],0.247
same,glycan array binding signal (z-score),Gal(b1-3)GlcNAc6S,-0.356
same,glycan array binding signal (z-score),[10],-0.144
same,glycan array binding signal (z-score),[11],-0.12
same,glycan array binding signal (z-score),[12],0.161
same,glycan array binding signal (z-score),[13],-0.288
same,glycan array binding signal (z-score),[14],-0.453
same,glycan array binding signal (z-score),[15],1.07
same,glycan array binding signal (z-score),[16],-0.318
same,glycan array binding signal (z-score),[17],-0.049
same,glycan array binding signal (z-score),[18],-0.265
same,glycan array binding signal (z-score),[19],-0.512
same,glycan array binding signal (z-score),Gal(b1-4)Gal,1.08
same,glycan array binding signal (z-score),[20],-0.399
same,glycan array binding signal (z-score),[21],-0.379
same,glycan array binding signal (z-score),Gal(b1-4)Glc,-0.482
same,glycan array binding signal (z-score),Gal(b1-4)Glc6S,-0.214
same,glycan array binding signal (z-score),Gal(b1-4)GlcNAc,-0.33
same,glycan array binding signal (z-score),[22],-0.512
same,glycan array binding signal (z-score),Gal(b1-4)GlcNAc(b1-2)Man,-0.265
same,glycan array binding signal (z-score),[23],-0.382
same,glycan array binding signal (z-score),[24],-0.479
same,glycan array binding signal (z-score),[25],-0.332
same,glycan array binding signal (z-score),[26],1.2
same,glycan array binding signal (z-score),[27],-0.121
same,glycan array binding signal (z-score),[28],-0.288
same,glycan array binding signal (z-score),[29],1.28
same,glycan array binding signal (z-score),[30],-0.023
same,glycan array binding signal (z-score),[31],-0.187
same,glycan array binding signal (z-score),[32],-0.416
